Data: PubChem BioAssay AID686978 (National Center for Advancing Translational Sciences (NCATS), 2013)
About 64,000 (15%) of roughly 420,000 compounds were called active. The inconclusive results got no clear call from the source; some entries with a clear call stand among them for comparison. Calls come from the whole dose curve; as a rule, active = well fitted inhibition curve with a large enough effect; inconclusive = small, poorly fitted or top-dose-only effect; inactive = flat fitted curve, though single readings scatter. Potencies of inconclusive entries are left out as doubtful fits.
% is set by controls: 0 for no effect and ±100 for the full control effect; potency is the fitted concentration of half-maximal effect; tags give direction and shape of the fitted curve.

Assay: qHTS for Inhibitors of human tyrosyl-DNA phosphodiesterase 1 (TDP1): qHTS in cells in absence of CPT; note: nearly all actives have a fitted effect of over 55% in size
Details: DT40 Tdp1-/- hTDP1 cells, no CPT, ATP luminescence, 48 h; activity change, negative = growth inhibition: at 46.2 µM (top of the series) unless noted
How it was run: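 Camptothecin absent (DMSO only). Human TDP1-complemented DT40 knockout cells, 400 cells/well, 37 °C for minimum 48 hr; ATP measured via CellTiter-Glo, 30 min dark incubation, luminescence.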
In the case of Cc1ccc(-n2c3c(cc(C(=O)NCc4ccco4)c2=O)C(=O)CC(C)(C)C3)cc1, the Potency is reported as inconclusive [inhibitor, single point]. With CC(O)c1nc2ccccc2n1Cc1nnc(-c2ccc(Cl)cc2)o1 (stereo unspecified) the Potency was inconclusive [inhibitor, partial curve, poor fit]. In the case of COc1cccc2cc(C(=O)c3ccc([N+](=O)[O-])cc3)oc12, the “activity change, negative = growth inhibition” value is reported as inactive: -11.5%. With Cc1ccc(Cn2c(C(=O)O)c(CNCCc3ccco3)c3ccc(C)cc32)cc1 the “activity change, negative = growth inhibition” value was inactive: -17.7%. In the case of N#CCCn1c(=O)c(-c2ccc(Cl)cc2)nc2cnc(N3CCNCC3)nc21, the Potency is reported as inconclusive [inhibitor, single point]. With O=C(O)c1ccc(CSc2nc3ccccc3[nH]2)cc1 the “activity change, negative = growth inhibition” value was inactive: 0.863%. For Cc1ccc(-c2ccc(CN3C(C)C(=O)N(Cc4cn(CCC5OCCO5)nn4)CCS3(=O)=O)cc2)cc1 (stereo unspecified), the Potency was inconclusive [inhibitor, single point]. With O=C1C2C3C=CC(C3)C2C(=O)N1CN(Cc1ccccc1)CN1C(=O)C2C3C=CC(C3)C2C1=O (stereo unspecified) the activity change, negative = growth inhibition was inconclusive: -30.3% [inhibitor]. In the case of CC(=O)Nc1ccc(NC(=O)C2CCN(C(=O)NC3CCCCC3)CC2)cc1, the “activity change, negative = growth inhibition” value is reported as inactive: 13%. With O=C(COC(=O)CCCSc1nc2ccccc2[nH]1)Nc1ccc(Oc2ccccc2)cc1 the “activity change, negative = growth inhibition” value was inactive: -25.9%. In the case of O=C(c1ccccc1F)N1CCN(S(=O)(=O)c2ccc3c(c2)OCCO3)CC1, the Potency is reported as inconclusive [inhibitor, partial curve]. In the case of Nn1cnc2c([nH]c3ccccc32)c1=O, the “activity change, negative = growth inhibition” value is reported as inactive: -16.7%. In the case of CCN1C(=S)SC(=O)C1=C1C=C(C)N(Cc2ccco2)C(C)=C1, the Potency is reported as active: 5.17 µM. In the case of CC1Cc2cc(S(=O)(=O)N3CCC(C(=O)N(C)Cc4ccccc4)CC3)ccc2N1C(=O)C1CC1 (stereo unspecified), the Potency is reported as inconclusive [inhibitor, single point]. In the case of O=C1c2sc3nc4n(c(=O)c3c2CCC1Br)CCCCC4 (stereo unspecified), the Potency is reported as active: 2.91 µM. In the case of O=C1CN(C(=O)c2ccco2)c2ccccc2N1, the “activity change, negative = growth inhibition” value is reported as inactive: 0.127%. In the case of Cc1ccc(F)cc1CNC(=O)C1CCC(=O)N(CCCN2CCCC2=O)C1 (stereo unspecified), the “activity change, negative = growth inhibition” value is reported as inactive: 14.2%. With O=C1CC(Sc2nnc(-c3ccccc3)o2)C(=O)N1c1ccccc1 (stereo unspecified) the Potency was active: 4.61 µM. For COc1ccc(NC(=O)CCc2nnc3ccc(N4CCC(C)CC4)nn23)cc1, the Potency was inconclusive [inhibitor, partial curve, poor fit]. In the case of CCCCCN(C(=O)CCC(=O)OCC(=O)c1ccc(C(C)(C)C)cc1)c1c(N)n(CCCC)c(=O)[nH]c1=O, the Potency is reported as inconclusive [inhibitor, single point]. With COc1ccc(NC(=O)C2(C)CCN2C)cc1OC (stereo unspecified) the “activity change, negative = growth inhibition” value was inactive: -5.14%. With COc1ccc(-c2cc(C(=O)NCCc3ccccc3)c3cc(C(C)C)ccc3n2)cc1 the Potency was inconclusive [inhibitor, single point]. For CCOc1ccc(S(=O)(=O)NC(C)(C)C)cc1-c1nc2c(C(C)(C)C)nn(C)c2c(=O)[nH]1, the Potency was inconclusive [inhibitor, single point]. In the case of CC(=O)c1ccc(N2CCN(C3C(=O)c4ccccc4N3C(C)=O)CC2)cc1 (stereo unspecified), the Potency is reported as inconclusive [inhibitor, partial curve]. In the case of COc1ccc(Cl)cc1NC(=O)CCN1CCN(Cc2ccccc2)CC1, the Potency is reported as inconclusive [inhibitor, single point]. For CCc1cc2c(N3CCN(C(=O)c4ccco4)CC3)ncnc2s1, the Potency was inconclusive [inhibitor, single point]. With O=S(=O)(c1ccc(Br)cc1)c1nnn2c1nc(NCc1cccs1)c1sccc12 the Potency was inconclusive [inhibitor, single point]. In the case of Cc1ccc(S(=O)(=O)Cn2nnnc2C(C(C)C)N2CCN(c3nc4ccccc4s3)CC2)cc1 (stereo unspecified), the Potency is reported as inconclusive [inhibitor, single point]. In the case of FC(F)(F)c1ccccc1Cc1c(-c2cccc(Cl)c2)nc2ccc(Br)cn12, the Potency is reported as inconclusive [inhibitor, single point]. In the case of CCOC(=O)c1cc(S(=O)(=O)N2CCN(Cc3ccccc3)CC2)cn1C, the Potency is reported as inconclusive [inhibitor, single point]. With Cc1cccc(C2=NN(c3ccccc3)[C@H](CO)[C@H]2c2ccc(Cl)cc2)c1 the Potency was inconclusive [inhibitor, single point]. In the case of COc1ccc(-n2cc(C(=O)NCc3cccc(OC)c3)c3ccccc3c2=O)cc1, the Potency is reported as inconclusive [inhibitor, partial curve]. For O=S(=O)(c1cccc2cccnc12)N1CCc2ccccc21, the activity change, negative = growth inhibition was inconclusive: -30.3% [inhibitor]. With COc1ccccc1CNC(=O)c1cc2c(C)nn(Cc3ccc(F)cc3)c2s1 the Potency was inconclusive [inhibitor, single point]. With COc1ccccc1NS(=O)(=O)c1cccc(NC(=O)c2nc3nc(C)cc(C)n3n2)c1 the Potency was active: 13 µM. With COc1ccc(-c2cc(C(=O)NC3CCCC3)c3ccccc3n2)cc1OC the Potency was active: 14.6 µM. For COc1cccc(CC2(CO)CCCN(Cc3sc(N4CCCC4)nc3Cl)C2)c1 (stereo unspecified), the Potency was inconclusive [inhibitor, single point]. For COc1ccccc1NC(=O)CCn1c(=O)oc2cc(Cl)ccc21, the Potency was inconclusive [inhibitor, single point]. With N#Cc1ccc(-c2csc(NC(=O)c3cc(-c4cccs4)nc4ccccc34)n2)cc1 the Potency was inconclusive [inhibitor, full curve]. For CCOC(=O)c1ccccc1NC(=O)Cn1cnc2c(cnn2C(C)(C)C)c1=O, the Potency was active: 25.9 µM. For c1ccc(Cn2c(Nn3cnnc3)nc3ccccc32)cc1, the Potency was inconclusive [inhibitor, full curve]. For COc1ccc(NC(=O)C(C)SCc2ccccc2)cc1OC (stereo unspecified), the Potency was inconclusive [inhibitor, single point]. With Cc1nc(SCC(=O)c2cccs2)c2oc3ccccc3c2n1 the Potency was inconclusive [inhibitor, single point]. For COc1ccc2nc(NC(=O)c3ccc(S(=O)(=O)N4CCCC(C)C4)cc3)sc2c1 (stereo unspecified), the Potency was active: 11.6 µM. In the case of COc1ccc(N=Cc2c(O)n(-c3cccc(C)n3)c(=O)c3ccccc23)cc1, the Potency is reported as inconclusive [inhibitor, partial curve, poor fit]. In the case of O=C1C=C(c2n[nH]nc2-c2ccccc2)C[C@@H](c2ccc(F)cc2)C1, the Potency is reported as active: 16.4 µM. With COc1ccc(C(C)=O)cc1CN1C(=O)C(Cc2ccccc2)ON=C1c1ncccc1C (stereo unspecified) the Potency was inconclusive [inhibitor, single point]. In the case of CC1=C(C(=O)Nc2ccccc2C)C(c2ccccn2)n2nc(SCc3ccccc3F)nc2N1 (stereo unspecified), the Potency is reported as active: 10.3 µM. For Cc1c(C(=O)NCCCN2CCOCC2)sc2nc(-c3ccc(F)cc3)cn12, the Potency was inconclusive [inhibitor, single point]. For CCc1ccc(NC(=O)CSc2nc(=O)n(Cc3ccco3)c3c2CCC3)cc1, the Potency was inconclusive [inhibitor, single point]. In the case of CN(C(=O)COC(=O)c1cc(=O)[nH]c2ccccc12)c1c(N)n(Cc2ccccc2)c(=O)[nH]c1=O, the “activity change, negative = growth inhibition” value is reported as inactive: -8.08%. With CCOC(=O)C1=C(C)N=c2s/c(=C\c3ccc(OCC(=O)O)cc3)c(=O)n2C1c1ccc(Cl)cc1 (stereo unspecified) the Potency was inconclusive [inhibitor, single point]. For COc1ccc(-c2cc3c(=O)n(CC(=O)NCCCN4CCC(N5CCCCC5)CC4)ncn3n2)cc1, the Potency was inconclusive [inhibitor, partial curve, poor fit]. With Cc1nc2cc(NS(=O)(=O)c3ccccc3)ccc2n1C the Potency was inconclusive [inhibitor, partial curve]. In the case of Cc1[nH]c2ccccc2c1C(C[N+](=O)[O-])c1cccc(O)c1 (stereo unspecified), the Potency is reported as inconclusive [inhibitor, partial curve]. For COc1ccc(CN2CCC(CNS(=O)(=O)c3cccc(C(F)(F)F)c3)CC2)cc1, the Potency was inconclusive [inhibitor, single point]. For CCCc1ccccc1OCCNS(=O)(=O)c1cc2c(cc1C)OCC(=O)N2, the Potency was active: 11.6 µM. With COC(=O)c1cc(=O)n(-c2ccc(C(F)(F)F)cc2)[nH]1 the “activity change, negative = growth inhibition” value was inactive: -11.6%. For Cc1nn(-c2ccccc2)c(N2CCCC2)c1/C=N/NC(=S)Nc1cc(C(F)(F)F)ccc1Cl, the Potency was inconclusive [inhibitor, single point]. For N/C(=N\OC(=O)c1cccs1)c1ccccc1, the activity change, negative = growth inhibition was inconclusive: -32.7% [inhibitor]. With O=c1c(Cl)c(Nc2cccc(Cl)c2)cnn1-c1nc2ccccc2s1 the Potency was inconclusive [inhibitor, partial curve]. For Cc1nc2c3ccccc3nc(NNC(=O)CCC(=O)NCCN3CCN(c4ccccc4F)CC3)n2n1, the Potency was inconclusive [inhibitor, single point]. With CCCc1nc2oc3c(NCCOCCO)ncnc3c2c2c1COC(C)(C)C2 the Potency was inconclusive [inhibitor, partial curve]. For Cc1ccc(S(=O)(=O)NCc2ccc(C(=O)N3CCN(c4ccc([N+](=O)[O-])cc4)CC3)cc2)cc1, the Potency was active: 9.2 µM. In the case of COc1ccc(-c2ccc(OC)cc2C(=O)O)cc1, the Potency is reported as inconclusive [inhibitor, full curve, poor fit]. In the case of Cc1cccc(OCC(=O)Nc2cc(C)ccc2O)c1, the Potency is reported as inconclusive [inhibitor, single point].
